# Reference: PubChem BioAssay (NCATS)
# This list was built around the results that the source calls inconclusive (neither active nor inactive); the mix of calls is not that of the screen. Where the call is inconclusive, the potency comes from a doubtful curve fit. Activity calls are given as the source filed them. Calls follow the shape of the dose curve; as a rule, active = well fitted inhibition curve with a large enough effect; inconclusive = small, poorly fitted or top-dose-only effect; inactive = no such curve, though single readings can be large or run the other way.
# Biological target: Muscarinic acetylcholine receptor M1 (Rattus norvegicus) (UniProt P08482)
# UniProt P08482, sequence (P08482 whole entry, looked up): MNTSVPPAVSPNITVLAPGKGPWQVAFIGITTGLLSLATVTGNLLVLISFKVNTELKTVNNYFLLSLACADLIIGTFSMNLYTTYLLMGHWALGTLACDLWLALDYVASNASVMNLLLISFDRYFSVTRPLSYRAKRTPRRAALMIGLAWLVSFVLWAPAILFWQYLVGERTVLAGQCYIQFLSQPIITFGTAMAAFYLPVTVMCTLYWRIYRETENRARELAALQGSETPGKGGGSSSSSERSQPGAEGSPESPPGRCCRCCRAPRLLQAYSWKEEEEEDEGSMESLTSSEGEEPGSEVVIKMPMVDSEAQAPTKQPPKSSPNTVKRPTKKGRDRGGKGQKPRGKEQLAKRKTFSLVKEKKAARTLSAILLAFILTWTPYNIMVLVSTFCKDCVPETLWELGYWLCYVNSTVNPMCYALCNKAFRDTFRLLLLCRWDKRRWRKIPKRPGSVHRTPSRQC
# Experiment: qHTS Assay for Antagonists of Acetylcholine Muscarinic M1 Receptor: Measurement of IP-One Response (AID 944); also: nearly all actives have a fitted effect of over 75% in size
# Settings: CHO-M1 cells, IP-One HTRF, antagonist mode; series mostly up to 46.1 µM
# Potency is read from the fitted curve at half-maximal effect; tags tell the direction and shape of the fitted curve.
row,SMILES,Potency
1,CC(=O)[C@@H]1CC[C@@H]2[C@@H]3CC=C4C[C@H](OS(=O)(=O)O)CC[C@@]4(C)[C@H]3CC[C@]21C,"inconclusive: 17.8 µM [inhibitor, partial curve, poor fit]"
2,CCCN1C[C@@H](CSC)C[C@H]2c3cccc4[nH]cc(c34)C[C@@H]21,"inconclusive: 25.1 µM [inhibitor, partial curve, poor fit]"
3,CC(=O)[C@@]1(O)CC[C@@H]2[C@@H]3CCC4=CC(=O)CC[C@@]4(C)[C@H]3CC[C@]21C,"inconclusive: 15.8 µM [inhibitor, partial curve, poor fit]"
4,COc1ccc2c(c1)CCC1C2CC[C@]2(C)[C@H](NCCCCCCN3C(=O)C=CC3=O)CC[C@@H]12 (stereo partly drawn),"inconclusive: 3.16 µM [inhibitor, full curve, poor fit]"
5,N[C@@H]1C=CC=C(C(=O)O)C1,"inconclusive: 5.01 µM [inhibitor, full curve, poor fit]"
6,CC(=O)O[C@@H]1[C@H]([N+]2(C)CCCCC2)C[C@@H]2[C@@H]3CC[C@@H]4C[C@@H](OC(C)=O)[C@H]([N+]5(C)CCCCC5)C[C@@]4(C)[C@H]3CC[C@]21C,active: 14.1 µM
7,CC(C)[C@@H]1NC(=O)[C@H](CCCCN)NC(=O)[C@H](Cc2c[nH]c3ccccc23)NC(=O)[C@H](Cc2ccc(O)cc2)NC(=O)[C@H](C)N(C)C(=O)[C@H](Cc2ccccc2)NC1=O,"inconclusive: 7.94 µM [inhibitor, full curve, poor fit]"
8,O=C(NC[C@H]1CCCCN1)c1cc(OCC(F)(F)F)ccc1OCC(F)(F)F,"inconclusive: 2.51 µM [inhibitor, full curve, poor fit]"
